Assay results as given in the supplement of paper PMC4604168 (melanoma cell lines).
The other results are listed elsewhere or left out. Repeats are few or missing, and single values can be far off.

Assays:
Experiment in all cases: cell count relative to DMSO control; melanoma cells; higher = more viable cells
Conditions in all cases: library dose: low library concentration; 72 h
WM115 = test system: WM115
WM1716 = test system: WM1716
WM1745 = test system: WM1745
WM3526 = test system: WM3526
WM3619 = test system: WM3619
WM451Lu = test system: WM451Lu
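Also: cell number obtained by counting DAPI-stained nuclei in high-throughput microscope images with image analysis software, screen run in 1,536-well plates.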

SMILES | cell count (WM115) [%] | cell count (WM1716) [%] | cell count (WM1745) [%] | cell count (WM3526) [%] | cell count (WM3619) [%] | cell count (WM451Lu) [%]
Cc1cc(Nc2cc(N3CCN(C)CC3)nc(Sc3ccc(NC(=O)C4CC4)cc3)n2)n[nH]1 [Tozasertib] + C[C@@H](Oc1cc(-c2cnn(C3CCNCC3)c2)cnc1N)c1c(Cl)ccc(F)c1Cl [Crizotinib] (first compound 0.006 µM, partner dose 0.2 µM) | 89.8 | 91.4 | 86.9 | 88.7 | 93 | 95.4
CC[C@]1(O)C[C@H]2CN(CCc3c([nH]c4ccccc34)[C@@](C(=O)OC)(c3cc4c(cc3OC)N(C=O)[C@H]3[C@@](O)(C(=O)OC)[C@H](OC(C)=O)[C@]5(CC)C=CCN6CC[C@]43[C@@H]65)C2)C1 [vincristine] + C[C@@H](N)c1ccc(C(=O)Nc2ccnc3[nH]ccc23)cc1 [RKI983] (first compound 0.0001 µM, partner dose 0.4 µM) | 53.7 | 30.8 | 91.5 | 70 | 50.6 | 62.2
Cc1cc(Nc2cc(N3CCN(C)CC3)nc(Sc3ccc(NC(=O)C4CC4)cc3)n2)n[nH]1 [Tozasertib] + CO[C@H]1C[C@@H]2CC[C@@H](C)[C@@](O)(O2)C(=O)C(=O)N2CCCC[C@H]2C(=O)O[C@H]([C@H](C)C[C@@H]2CC[C@@H](OCCO)[C@H](OC)C2)CC(=O)[C@H](C)/C=C(\C)[C@@H](O)[C@@H](OC)C(=O)[C@H](C)C[C@H](C)/C=C/C=C/C=C/1C [everolimus] (first compound 0.006 µM, partner dose 0.02 µM) | 75 | 62.3 | 66.9 | 70.3 | 78.4 | 99.1
CC[C@]1(O)C[C@H]2CN(CCc3c([nH]c4ccccc34)[C@@](C(=O)OC)(c3cc4c(cc3OC)N(C=O)[C@H]3[C@@](O)(C(=O)OC)[C@H](OC(C)=O)[C@]5(CC)C=CCN6CC[C@]43[C@@H]65)C2)C1 [vincristine] + COc1ccc(-c2ccc3c(N4CCOCC4)nc(N4C[C@@H](C)O[C@@H](C)C4)nc3n2)cc1CO [KU0063794] (first compound 0.0001 µM, partner dose 0.02 µM) | 58.7 | 48.5 | 94.9 | 73.8 | 75.3 | 65.1
Cc1cc(Nc2cc(N3CCN(C)CC3)nc(Sc3ccc(NC(=O)C4CC4)cc3)n2)n[nH]1 [Tozasertib] + Cn1cncc1[C@@](N)(c1ccc(Cl)cc1)c1ccc2c(c1)c(-c1cccc(Cl)c1)cc(=O)n2C [tipifarnib] (first compound 0.006 µM, partner dose 0.01 µM) | 92.4 | 84.7 | 90.8 | 99.7 | 97.7 | 82.9
CC[C@]1(O)C[C@H]2CN(CCc3c([nH]c4ccccc34)[C@@](C(=O)OC)(c3cc4c(cc3OC)N(C=O)[C@H]3[C@@](O)(C(=O)OC)[C@H](OC(C)=O)[C@]5(CC)C=CCN6CC[C@]43[C@@H]65)C2)C1 [vincristine] + Cc1ccc(NC(=O)c2cccc(N(C)C)c2)cc1NC(=O)c1ccc(O)cc1 [ZM336372] (first compound 0.0001 µM, partner dose 2 µM) | 37.8 | 41.3 | 76.5 | 57.3 | 64.7 | 38.9
N#CC[C@H](C1CCCC1)n1cc(-c2ncnc3[nH]ccc23)cn1 [ruxolitinib] + CO[C@H]1C[C@@H]2CC[C@@H](C)[C@@](O)(O2)C(=O)C(=O)N2CCCC[C@H]2C(=O)O[C@H]([C@H](C)C[C@@H]2CC[C@@H](OCCO)[C@H](OC)C2)CC(=O)[C@H](C)/C=C(\C)[C@@H](O)[C@@H](OC)C(=O)[C@H](C)C[C@H](C)/C=C/C=C/C=C/1C [everolimus] (first compound 1 µM, partner dose 0.02 µM) | 89.8 | 74.2 | 81.4 | 82.9 | 74.5 | 70.3
N#CC[C@H](C1CCCC1)n1cc(-c2ncnc3[nH]ccc23)cn1 [ruxolitinib] + CN(c1ncccc1CNc1nc(Nc2ccc3c(c2)CC(=O)N3)ncc1C(F)(F)F)S(C)(=O)=O [PF562271] (first compound 1 µM, partner dose 0.08 µM) | 101 | 82.7 | 102 | 97.3 | 101 | 76.5
CC[C@]1(O)C[C@H]2CN(CCc3c([nH]c4ccccc34)[C@@](C(=O)OC)(c3cc4c(cc3OC)N(C=O)[C@H]3[C@@](O)(C(=O)OC)[C@H](OC(C)=O)[C@]5(CC)C=CCN6CC[C@]43[C@@H]65)C2)C1 [vincristine] + NC(=O)c1ccc(N(C(N)=O)c2c(F)cccc2F)nc1-c1ccc(F)cc1F [VX702] (first compound 0.0001 µM, partner dose 0.4 µM) | 69.2 | 60.9 | 94.2 | 85.5 | 47 | 48.8
CC[C@]1(O)C[C@H]2CN(CCc3c([nH]c4ccccc34)[C@@](C(=O)OC)(c3cc4c(cc3OC)N(C=O)[C@H]3[C@@](O)(C(=O)OC)[C@H](OC(C)=O)[C@]5(CC)C=CCN6CC[C@]43[C@@H]65)C2)C1 [vincristine] + CCCS(=O)(=O)Nc1ccc(F)c(C(=O)c2c[nH]c3ncc(Cl)cc23)c1F [PLX4720] (first compound 0.0001 µM, partner dose 0.08 µM) | 49.1 | 47.3 | 101 | 62.5 | 52 | 61.5
CC[C@]1(O)C[C@H]2CN(CCc3c([nH]c4ccccc34)[C@@](C(=O)OC)(c3cc4c(cc3OC)N(C=O)[C@H]3[C@@](O)(C(=O)OC)[C@H](OC(C)=O)[C@]5(CC)C=CCN6CC[C@]43[C@@H]65)C2)C1 [vincristine] + CNC(=O)c1cc(Oc2ccc(NC(=O)Nc3ccc(Cl)c(C(F)(F)F)c3)cc2)ccn1 [sorafenib] (first compound 0.0001 µM, partner dose 0.4 µM) | 51.7 | 38 | 71.8 | 57.2 | 42.9 | 58.2
CC[C@]1(O)C[C@H]2CN(CCc3c([nH]c4ccccc34)[C@@](C(=O)OC)(c3cc4c(cc3OC)N(C=O)[C@H]3[C@@](O)(C(=O)OC)[C@H](OC(C)=O)[C@]5(CC)C=CCN6CC[C@]43[C@@H]65)C2)C1 [vincristine] + Cc1ccc(Nc2nccc(N(C)c3ccc4c(C)n(C)nc4c3)n2)cc1S(N)(=O)=O [Pazopanib] (first compound 0.0001 µM, partner dose 0.4 µM) | 61.3 | 39 | 86.9 | 62.2 | 48.1 | 65.3
Cc1cc(Nc2cc(N3CCN(C)CC3)nc(Sc3ccc(NC(=O)C4CC4)cc3)n2)n[nH]1 [Tozasertib] + O=c1cc(-c2cccc3c2Sc2ccccc2S3)oc(N2CCOCC2)c1 [KU55933] (first compound 0.006 µM, partner dose 1 µM) | 92.6 | 104 | 87.7 | 78 | 120 | 89.3
N#CC[C@H](C1CCCC1)n1cc(-c2ncnc3[nH]ccc23)cn1 [ruxolitinib] + CN1CCN(c2ccc3nc(-c4c(N)c5c(F)cccc5[nH]c4=O)[nH]c3c2)CC1 [Dovitinib] (first compound 1 µM, partner dose 0.1 µM) | 123 | 116 | 99.1 | 102 | 115 | 99.9
CC[C@]1(O)C[C@H]2CN(CCc3c([nH]c4ccccc34)[C@@](C(=O)OC)(c3cc4c(cc3OC)N(C=O)[C@H]3[C@@](O)(C(=O)OC)[C@H](OC(C)=O)[C@]5(CC)C=CCN6CC[C@]43[C@@H]65)C2)C1 [vincristine] + Nc1nc(F)nc2c1ncn2[C@@H]1O[C@H](CO)[C@@H](O)[C@@H]1O [fludarabine] (first compound 0.0001 µM, partner dose 0.2 µM) | 39.7 | 49 | 88.8 | 21 | 58.8 | 51.3
CC[C@]1(O)C[C@H]2CN(CCc3c([nH]c4ccccc34)[C@@](C(=O)OC)(c3cc4c(cc3OC)N(C=O)[C@H]3[C@@](O)(C(=O)OC)[C@H](OC(C)=O)[C@]5(CC)C=CCN6CC[C@]43[C@@H]65)C2)C1 [vincristine] + NC(=O)Nc1cc(-c2cccc(F)c2)sc1C(=O)N[C@H]1CCCNC1 [AZD7762] (first compound 0.0001 µM, partner dose 0.02 µM) | 42.5 | 40.6 | 97.3 | 56.5 | 44.6 | 71.8
Cc1cc(Nc2cc(N3CCN(C)CC3)nc(Sc3ccc(NC(=O)C4CC4)cc3)n2)n[nH]1 [Tozasertib] + CC1(C)NC(=O)N(c2ccc([N+](=O)[O-])c(C(F)(F)F)c2)C1=O [nilutamide] (first compound 0.006 µM, partner dose 1 µM) | 98.8 | 83.9 | 72.2 | 85.7 | 86.3 | 91.6
CC[C@]1(O)C[C@H]2CN(CCc3c([nH]c4ccccc34)[C@@](C(=O)OC)(c3cc4c(cc3OC)N(C=O)[C@H]3[C@@](O)(C(=O)OC)[C@H](OC(C)=O)[C@]5(CC)C=CCN6CC[C@]43[C@@H]65)C2)C1 [vincristine] + C=C(c1ccc(C(=O)O)cc1)c1cc2c(cc1C)C(C)(C)CCC2(C)C [Bexarotene] (first compound 0.0001 µM, partner dose 2 µM) | 55.9 | 45.6 | 85 | 69.6 | 63.4 | 62.2
Cc1cc(Nc2cc(N3CCN(C)CC3)nc(Sc3ccc(NC(=O)C4CC4)cc3)n2)n[nH]1 [Tozasertib] + CC[C@]1(O)C[C@H]2CN(CCc3c([nH]c4ccccc34)[C@@](C(=O)OC)(c3cc4c(cc3OC)N(C=O)[C@H]3[C@@](O)(C(=O)OC)[C@H](OC(C)=O)[C@]5(CC)C=CCN6CC[C@]43[C@@H]65)C2)C1 [vincristine] (first compound 0.006 µM, partner dose 0.0001 µM) | 61.8 | 48.8 | 75.9 | 70.5 | 58.9 | 93.1
Cc1cc(Nc2cc(N3CCN(C)CC3)nc(Sc3ccc(NC(=O)C4CC4)cc3)n2)n[nH]1 [Tozasertib] + NC(=O)Nc1cc(-c2cccc(F)c2)sc1C(=O)N[C@H]1CCCNC1 [AZD7762] (first compound 0.006 µM, partner dose 0.02 µM) | 80.2 | 80.5 | 89.6 | 67.8 | 45.9 | 104
